Experimental data: the supplement of paper PMC10126150
Sequences with one replicate were seen in a single cluster, so their values are uncertain.

System: ATP
Assay: switch fluorescence ratio, 500 uM ATP over buffer (Cy3 cluster intensity, sum of 5 cycles each) (fold (ratio)); higher = stronger signal-on switching upon ATP binding; sequences stand for … in TCGTCGGCAGCGTCAGATGTGTATAAGAGACAGTTTTTTTTTTTTTTTTTTTTTTTTT…TC
Settings: aptamer strand: ATP DNA aptamer (quencher-CACCTGGGGGAGTATTGCGGAGGAAGG + anchor), 100 nM annealed; ATP concentration: 500 uM; one replicate
In short: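 Cy3-labelled switching-strand clusters on a modified Illumina MiSeq flow-cell were annealed to 100 nM quencher-labelled ATP aptamer and imaged first in selection buffer, then after 15 min with 500 uM ATP at 22 °C. NaOH stripping and re-annealing separated each of five buffer/ATP cycles, and clusters outside 100-1000 RFU were excluded. The fluorescence ratio sums target-cycle Cy3 intensity over buffer-cycle Cy3 intensity per cluster and averages it per switch-domain sequence.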
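Further: ATP exposure 15 min at 22 °C before imaging.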

## TTCACTTATT
  switch fluorescence ratio: 1.03

## AAAGTAATAG
  switch fluorescence ratio: 1.14

## TTCAGGTTAC
  switch fluorescence ratio: 1

## AACGTTTCCG
  switch fluorescence ratio: 0.955

## TGTCATGGGA
  switch fluorescence ratio: 0.965

## GAGGCCTTGA
  switch fluorescence ratio: 1.02

## AACGTCAGCC
  switch fluorescence ratio: 1.06

## ATAATGGTT
  switch fluorescence ratio: 1.02

## TTTCGATCTG
  switch fluorescence ratio: 0.998

## TATAGGAGTA
  switch fluorescence ratio: 0.971

## AAAGCCCTCG
  switch fluorescence ratio: 1.01

## GTTCGACTTT
  switch fluorescence ratio: 0.961

## TTACGGTCTG
  switch fluorescence ratio: 1.02

## GGGACTGCTT
  switch fluorescence ratio: 0.971

## CCAGTTTGCG
  switch fluorescence ratio: 1.05

## TGTAGGTAGG
  switch fluorescence ratio: 1

## TAGGTAACGG
  switch fluorescence ratio: 0.997

## CATCAAAGTG
  switch fluorescence ratio: 1.04

## CGATTGAATT
  switch fluorescence ratio: 0.976

## GATATCTCC
  switch fluorescence ratio: 1.08

## TTACCCTACT
  switch fluorescence ratio: 1.25

## GTGTTGGCGT
  switch fluorescence ratio: 1.04

## TATCCAGAGA
  switch fluorescence ratio: 1.01

## GCAGTGAGAC
  switch fluorescence ratio: 3.69

## CGTAACAAGG
  switch fluorescence ratio: 1.01

## GTGGACGCTG
  switch fluorescence ratio: 0.959

## TCGCGCCATG
  switch fluorescence ratio: 1.01

## ATTCTTCGT
  switch fluorescence ratio: 1.01

## CGTGGCGGAC
  switch fluorescence ratio: 1.07

## GACTGAAAAC
  switch fluorescence ratio: 1.19

## CCAATGGGA
  switch fluorescence ratio: 1.04

## AGGATGAGTG
  switch fluorescence ratio: 1.06

## GTAACCGGCG
  switch fluorescence ratio: 0.995

## ATACCGTCAT
  switch fluorescence ratio: 1

## AGCGAAGCGT
  switch fluorescence ratio: 1.06

## TATCTAGGAG
  switch fluorescence ratio: 1.02

## ATAGTGTTTT
  switch fluorescence ratio: 0.987

## TGTCGTGCCT
  switch fluorescence ratio: 0.995

## GCTAGCTTCG
  switch fluorescence ratio: 1.02

## CTGAACGTTG
  switch fluorescence ratio: 1.15

## ATCGATGTTC
  switch fluorescence ratio: 1.03

## CACGCATTTC
  switch fluorescence ratio: 4.41

## GGCGTGTCTA
  switch fluorescence ratio: 1.01

## CTTGAATTAG
  switch fluorescence ratio: 1.02

## TAAGCTGTAC
  switch fluorescence ratio: 3.54

## CACTTCAGGG
  switch fluorescence ratio: 1.01

## CTTGAATTTG
  switch fluorescence ratio: 0.99

## CTTGGGGCGT
  switch fluorescence ratio: 0.992

## CGGAGTCGT
  switch fluorescence ratio: 1.14

## GAAGACTTTA
  switch fluorescence ratio: 1.02

## AACTGGTTC
  switch fluorescence ratio: 0.978

## ACGTCCGTC
  switch fluorescence ratio: 1.08

## ATTGAAGCG
  switch fluorescence ratio: 1.14

## CGTTCCGTGG
  switch fluorescence ratio: 1.02

## AATCGTGCAG
  switch fluorescence ratio: 0.987

## ATATCCAGAC
  switch fluorescence ratio: 0.986

## ACACCTAGTG
  switch fluorescence ratio: 1.02

## GCTAGTACAT
  switch fluorescence ratio: 0.97

## AAGAGTGTT
  switch fluorescence ratio: 1

## AGGATTCAGA
  switch fluorescence ratio: 0.985

## TGGGTTGG
  switch fluorescence ratio: 0.955

## GCATGTAAAT
  switch fluorescence ratio: 1

## AAAGAAATGA
  switch fluorescence ratio: 0.958

## GTCGTTTAG
  switch fluorescence ratio: 0.993

## ATAGGAGATG
  switch fluorescence ratio: 0.985

## TGTGTGATCC
  switch fluorescence ratio: 0.908

## AGAACGCAAG
  switch fluorescence ratio: 1.11

## TTCAGGGAAT
  switch fluorescence ratio: 0.976

## GTCAACGTAC
  switch fluorescence ratio: 1.81

## GACCGGGGTT
  switch fluorescence ratio: 1.06

## TTTCGAGACG
  switch fluorescence ratio: 0.869

## CGTCACACCA
  switch fluorescence ratio: 1.12

## CTGACAGGTT
  switch fluorescence ratio: 1.84

## GATGCGAGCG
  switch fluorescence ratio: 1.01

## TTTTCCTAAG
  switch fluorescence ratio: 1.03

## CCGGTCGCTG
  switch fluorescence ratio: 1.05

## GGAGTACGAG
  switch fluorescence ratio: 0.981

## TAATCGAGTG
  switch fluorescence ratio: 0.952

## GGGACCGCGT
  switch fluorescence ratio: 1

## GCGTTTTAGT
  switch fluorescence ratio: 0.984

## CGTATCTGTT
  switch fluorescence ratio: 0.986

## TGCGTCGGGA
  switch fluorescence ratio: 1

## GGGGATGCTT
  switch fluorescence ratio: 0.986

## CGGTACGTAC
  switch fluorescence ratio: 1.37

## TCAGGGTACG
  switch fluorescence ratio: 0.99

## TTATCAAGAC
  switch fluorescence ratio: 1.45

## ATAACCCTGA
  switch fluorescence ratio: 1.05

## ATGGGCAAAT
  switch fluorescence ratio: 0.958

## GTGAAGTAGA
  switch fluorescence ratio: 1.01

## CACATCGAAT
  switch fluorescence ratio: 0.997

## GATCAGACTA
  switch fluorescence ratio: 0.963

## GGTAGTTGCG
  switch fluorescence ratio: 0.959

## ATGCCGCCAG
  switch fluorescence ratio: 1

## TGGCAAATTT
  switch fluorescence ratio: 1

## GTGCGTTTAT
  switch fluorescence ratio: 1.05

## AGTCTGAAAT
  switch fluorescence ratio: 0.944

## CATAAGGAGG
  switch fluorescence ratio: 0.978

## AAGCAATTAC
  switch fluorescence ratio: 2.11

## TGTGGTTTGC
  switch fluorescence ratio: 1.03

## GGAGCGCACC
  switch fluorescence ratio: 1.01
